# Results reported in PubChem BioAssay AID504832 (National Center for Advancing Translational Sciences (NCATS), 2011).
# Screen size: about 310,000 compounds; about 18,000 (5.8%) were called active. This list was built around the results that the source calls inconclusive (neither active nor inactive); the mix of calls is not that of the screen. Calls follow the shape of the dose curve; as a rule, active = well fitted inhibition curve with a large enough effect; inconclusive = small, poorly fitted or top-dose-only effect, or another doubt; inactive = no such curve, though single readings can be large or run the other way. Potencies of inconclusive entries are left out as doubtful fits.
# Assay: Primary qHTS for delayed death inhibitors of the malarial parasite plastid, 48 hour incubation
# Details: P. falciparum luciferase growth in erythrocytes; series mostly up to 28.7 µM; activity change, negative = inhibition: at the top concentration
# Summary of the method: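 Read-out is firefly luciferase luminescence from an integrated reporter in P. falciparum, so falling signal marks reduced parasite growth. Infected erythrocytes were at 2% hematocrit and 0.1% parasitemia (final) in Albumax-supplemented RPMI 1640.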
# % is scaled to controls: 0 for no effect and ±100 for the full control effect; potency is read from the fitted curve at half-maximal effect; tags tell the direction and shape of the fitted curve.
Compound,Potency,"activity change, negative = inhibition"
COc1ccc(CCNC(=O)C(=O)NCC2OCCN2C(=O)c2ccc(Cl)cc2)cc1OC (stereo not given),"inconclusive [inhibitor, single point]",
Cc1cccc(N2CCN(Cc3cc(=O)n4ccsc4n3)CC2)c1C,"inconclusive [inhibitor, full curve, poor fit]",
CCN(CC)CCn1c(=S)[nH]c2cc(C(=O)NCc3ccccc3Cl)ccc2c1=O,"inconclusive [inhibitor, single point]",
CCCNC(=O)c1cc2cc([N+](=O)[O-])ccc2s1,,inactive: 17.4%
CC1(C)CCC[C@]2(C)[C@H]3CC(=O)O[C@]3(C)CC[C@@H]12,,inactive: 14.7%
O=C(CCc1ccc(CCC(=O)c2cccs2)s1)c1cccs1,,inactive: 46.3%
Cc1cc(C(=O)NC2CC(C)(C)Cc3c2cnn3-c2ccccc2C)c(C)o1 (stereo not given),"inconclusive [inhibitor, partial curve, poor fit]",
CCOC(=O)C1=C(COC(=O)/C=C/c2ccc(O)c(OC)c2)NC(=O)NC1C (stereo not given),"inconclusive [inhibitor, single point]",
COc1ccc(C(=O)c2ccccc2)c(O)c1,"inconclusive [inhibitor, single point]",
COc1cccc(F)c1C(=O)NC(=O)Nc1ccc2nc(C)oc2c1,active: 2.08 µM,
CC1(C)CC(=O)C(C=NCCN2CCN(C(=O)Cc3ccc(Cl)cc3)CC2)=C(O)C1,,inactive: 54.4%
c1ccc(COC2CCCN(Cc3nc(Cc4ccccc4)no3)C2)cc1 (stereo not given),"inconclusive [inhibitor, full curve, poor fit]",
CCCc1[nH]nc2c1C(CCc1ccccc1)C(C#N)=C(N)O2 (stereo not given),"inconclusive [inhibitor, single point]",
CCOC(=O)C1CCCN(S(=O)(=O)c2cnc(Cl)c(Br)c2)C1 (stereo not given),,inactive: 2.03%
CSc1sc(C(=O)NCC2CC2)cc1S(=O)(=O)C(C)C,active: 2.33 µM,
Cc1ccc(S(=O)(=O)NCCS(=O)(=O)N2CCN(c3ccc(F)cc3)CC2)cc1,"inconclusive [inhibitor, single point]",
O=C(Nc1nc2ccccc2s1)C1CCCN1S(=O)(=O)c1ccc(Cl)cc1 (stereo not given),"inconclusive [inhibitor, partial curve, poor fit]",
COc1ccc(/C(C)=N/NC(=O)c2ccc(NS(=O)(=O)c3cccs3)cc2)cc1,,inactive: 2.92%
CN(C)c1nc(-c2ccc([N+](=O)[O-])cc2)cs1,,inactive: 124%
Cc1ccccc1-n1nnnc1SCC(C)C,,inactive: 11.9%
O=C(c1[nH]ncc1-c1ccc(Cl)cc1)C1CO1 (stereo not given),active: 7.38 µM,
O=C(NCC1CCCO1)c1ccc2c(c1)N(Cc1ccccc1)C(=O)CS2=O (stereo not given),"inconclusive [inhibitor, partial curve, poor fit]",
O=C1C(Cl)=C(Nc2ccc(F)cc2)C(=O)N1CCc1ccccc1,,inactive: 7.81%
O=C(NN=C1CCCCCC1)c1ccc2c(c1)OCO2,,inactive: 25.2%

Compound,Potency,"activity change, negative = inhibition"
Cc1ccccc1N(CC(=O)N1CCOCC1)S(C)(=O)=O,"inconclusive [inhibitor, partial curve]",
CC(C)CCNC(=O)CN(Cc1ccc2c(c1)OCO2)C(=O)CCC(=O)Nc1ccccn1,,inactive: -1.52%
Cc1ccc(S(=O)(=O)N2CCN(S(=O)(=O)c3ccccc3)C2c2ccc(N(C)C)cc2)cc1 (stereo not given),"inconclusive [inhibitor, single point]",
COc1cccc(/C=C2/Sc3ccc(C(=O)NCCN4CCCCCC4)cc3NC2=O)c1,"inconclusive [inhibitor, full curve]",
CCCOC(=O)c1ccc(OCC(O)Cn2c(C)nc3ccccc32)cc1 (stereo not given),"inconclusive [inhibitor, single point]",
Cc1cccc(N(C(=O)CS(=O)CC(=O)Nc2ccc3c(c2)OCO3)C(C)C(=O)NC2CCCC2)c1C (stereo not given),,inactive: -1.52%
N#Cc1ccccc1OCC(=O)NCc1ccccc1CN1CCCC1,"inconclusive [inhibitor, single point]",
CCC(=Nc1cc(OC)ccc1OC)c1c(O)[nH]c(=O)[nH]c1=O,,inactive: -0.0516%
COc1ccc(CCNC(=O)COC(=O)CCC(=O)c2ccc(F)cc2)cc1OC,,inactive: 0%
Cc1ccc(NC(=O)N2CCCC2C(=O)Nc2nnc(C(C)C)s2)cc1 (stereo not given),,inactive: 14.9%
CC(C(=O)Nc1ccccc1C(F)(F)F)N1CCN(C)CC1 (stereo not given),"inconclusive [inhibitor, full curve, poor fit]",
NC(=O)c1ccc(NC(=O)CNC(c2ccccc2)c2ccccc2)cc1,"inconclusive [inhibitor, partial curve, poor fit]",
COc1ccc(N(C(=O)c2ccco2)C(C(=O)NC2CCCCC2)c2cccs2)cc1OC (stereo not given),"inconclusive [inhibitor, single point]",
O=S(=O)(c1cccc(COc2c(Cl)cccc2Cl)c1)N1CCOCC1,,inactive: 2.9%
COc1ccc(NC(=O)[C@@H]2CCCN2C(=O)[C@@H]2Cc3ccccc3CN2C(=O)OC(C)(C)C)cc1,active: 11.7 µM,
COCCNC(=O)CN1CCC(NC(=O)Nc2ccccc2)CC1,,inactive: 6.09%
CN(c1ccccc1)S(=O)(=O)c1cccc(NC(=O)c2cncc(Br)c2)c1,active: 10.4 µM,
N=c1c(C(=O)NC2CCCC2)cc2c(=O)n3ccccc3nc2n1CCCN1CCOCC1,"inconclusive [inhibitor, full curve, poor fit]",
Cc1cccc(S(=O)(=O)c2c(C)cc(C)nc2Cl)c1,,inactive: -12.9%
CC1CC(C)CN(S(=O)(=O)c2ccc(NC(=S)NC(=O)c3ccccc3)cc2)C1 (stereo not given),,inactive: 9.55%
CCOc1ccc2c(c1)C(c1ccccc1)=NNC(c1ccccc1)=N2,"inconclusive [inhibitor, partial curve, poor fit]",
COc1ccccc1NC(=O)CSc1nc2n[nH]c(C)c2c(=N)n1-c1ccccc1Cl,active: 5.86 µM,
Cc1ccc(S(=O)(=O)N(C)C)cc1NC(=O)c1ccncc1,,inactive: 4.38% [at 5.75 µM]
CC1(C)C2CC[C@]1(C)[C@@H](O)C2,,inactive: -5.58%

Compound,Potency,"activity change, negative = inhibition"
Cc1ccc(NC(=O)c2ccc(NCCN)c([N+](=O)[O-])c2)cc1,"inconclusive [inhibitor, single point]",
CCCn1c(SCc2nc3sc(C)c(C)c3c(=O)[nH]2)nc2ccccc2c1=O,"inconclusive [inhibitor, single point]",
CCOC(=O)C1CCN(CC(=O)Nc2ccc(S(=O)(=O)N3CCC(C)CC3)cc2)CC1,"inconclusive [inhibitor, single point]",
CCN(CC)c1nc(-c2ccccc2)ncc1S(=O)(=O)c1ccc(C)cc1,,inactive: -15.3%
COc1ccc(N2C(N)=C(C#N)C(c3cccnc3)C3=C2CC(C)(C)CC3=O)cc1 (stereo not given),"inconclusive [inhibitor, partial curve]",
CN(Cc1ccc(OC(F)F)cc1)C(=O)c1ccc2c(=O)n3c(nc2c1)CCC3,"inconclusive [inhibitor, single point]",
COc1ccccc1N(CC(=O)N1CCCCCC1)S(=O)(=O)c1ccc(C)cc1,"inconclusive [inhibitor, single point]",
COc1ccc(CCN(C)c2ccc(S(=O)(=O)N3CCCC3)cc2[N+](=O)[O-])cc1OC,"inconclusive [inhibitor, partial curve, poor fit]",
O=C(/C=C/c1cc([N+](=O)[O-])ccc1OC(F)F)Nc1cccc(OC(F)F)c1,"inconclusive [inhibitor, partial curve]",
CCOC(=O)N1CCN(C(=O)c2ccc3c(c2)N(C)C(=O)/C(=C\c2ccc(OCC)c(OC)c2)S3)CC1,active: 1.17 µM,
Cc1cc(Cl)ccc1OCC(=O)NNC(=O)C1CSC2(C)CCC(=O)N12 (stereo not given),"inconclusive [inhibitor, single point]",
CN(C)C(=S)Nc1ccc2c(c1)OCO2,,inactive: -21.4% [at 5.75 µM]
Cc1cc(C)n(-c2ccc(C(=O)Nc3ccc(S(=O)(=O)N(C)C)cc3)cc2)n1,active: 14.7 µM,
COc1cc(C(=O)Nc2ccccc2N2CCN(S(C)(=O)=O)CC2)cc(OC)c1OC,"inconclusive [inhibitor, single point]",
Cc1cc2c(=O)n(Cc3ccco3)c(SCC(=O)NCc3ccco3)nc2s1,"inconclusive [inhibitor, partial curve, poor fit]",
O=C1/C(=C\c2cccs2)SC(=S)N1C1CCS(=O)(=O)C1 (stereo not given),"inconclusive [inhibitor, single point]",
CCOC(=O)c1ccc(S(=O)(=O)N2CCN(CC(=O)NC(=O)NC(C)(C)C)CC2)cc1,"inconclusive [inhibitor, single point]",
Cc1ccc(C)n1CCN1CCN(S(=O)(=O)c2ccc(F)cc2F)CC1,"inconclusive [inhibitor, partial curve, poor fit]",
Cc1cnc(NC(=O)c2cc3c(C)nn(-c4ccccc4)c3s2)s1,active: 6.57 µM,
Cc1cccc(N2CCN(C(=O)NCc3ccc(F)cc3)CC2)c1C,"inconclusive [inhibitor, single point]",
O=C(NCCC(=O)N1CCN(S(=O)(=O)c2ccc(F)cc2)CC1)Nc1ccccc1,"inconclusive [inhibitor, single point]",
COc1cccc(-c2ncc3ccccc3c2COC(=O)c2ccc(Br)cc2)c1,"inconclusive [inhibitor, single point]",
